# The supplement of paper PMC12217912
# Some of the results follow. The full chains were built here from the parent and the listed change. Values near 0.05 are background.
# B1: TEV protease; numbered along this chain (parent)
# chain: MGESLFKGPRDYNPISSSICHLTNESDGHTTSLYGIGFGPFIITNKHLFRRNNGTLVVQSLHGVFKVKDTTTLQQHLVDGRDMIIIRMPKDFPPFPQKLKFREPQREERICLVTTNFQTKSMSSMVSDTSCTFPSGDGIFWKHWIQTKDGQCGSPLVSTRDGFIVGIHSASNFTNTNNYFTSVPKNFMELLTNQEAQQWVSGWRLNADSVLWGGHKVFMVKPEEPFQPVKEATQL
# Variants of: B1
# Experiment: raw area under fraction-flipped curve 0-4 h after induction (AUC4h, not background-subtracted), DNA-recorder readout of cleavage of the substrate (dimensionless); higher = more cleavage of the substrate by the protease variant
# Settings: temperature: 34 °C; time window: 0-4 h after rhamnose induction
# 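Note: Bxb1 expression induced with 0.2% (w/v) L-rhamnose at OD600 near 0.5, cultures sampled hourly, flipped fraction per protease–substrate barcode pair counted by paired-end Illumina sequencing.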
Variant,area with substrate ENLYFES,area with substrate ENLYFIS,area with substrate ENLYFKS,area with substrate ENLYFLS,area with substrate ENLYFMS,area with substrate ENLYFNS,area with substrate ENLYFRS,area with substrate ENLYFSS,area with substrate ENLYFTS,area with substrate ENLYFVS
MGESLFKGPRDYNPISSSICHLTNESDGHTTSLYGIGFGPFIITNKHLFRRNNGTLVVQSLHGVFKVKDTTTLQQHLVDGRDMIIIRMPKDFPPFPQKLKFREPQREERICLVTTNFQTKSMSSMVSDTSCTFPSGDGIFWKHWIQTKDGQCGSPLVSTRDGFIVGIHSASNFTNTNNYFTSVPKNFMELLTNQEAQQWVSGWRLNADSVLWGGHKVFMVKPEEPFQPDKEATQL [V229D],0.0684,0.051,0.0752,0.0724,0.0616,0.0626,0.0527,0.0674,0.0756,0.0591
MGESLFKGPRDYNPISSSICHLTNESDGHTTSLYGIGFGPFIITNKHLFRRNNGTLVVQSLHGVFKVKDTTTLQQHLVDGRDMIIIRMPKDFPPFPQKLKFREPQREERICLVTTNFQTKSMSSMVSDTSCTFPSGDGIFWKHWIQSKDGQCGSPLVSTRDGFIVGIHSASNFTNTNNYFTSVPKNFMELLTNQEAQQWVSGWRLNADSVLWGGHKVFMVKPEEPFQPVKEATQL [T147S],,0.0605,,,,0.0592,0.0556,,,
MGESLFKGPRDYNPISSSICHLTNESDGHTTSLYGIGFGPFIITNKHLFRRNNGTLVVQSLHGVFKVKDTTTLQQHLVDGRDMIIIRMPKDFPPFPQKLKFREPQREERICLVTTNFQTKSMSSMVSDTSCTFPSGDGIFWKHWIQTKDGQCGSPLVSTRDGFIVGIHSASNFTNTNNYFTSVPKNFMELLTNQEAQQWVSGWRLNADSVLWGGHKVFMVKPEEPFQPVAEATQL [K230A],0.0684,0.056,,,0.0625,0.0632,,0.052,,
MGESLFKGPRDYNPISSSICHLTNESDGHTTSLYGIGFGPFIITNKHLFRRNNGTLVVQSLHGVFKVKDTTTLQQHLVDGRDMIIIRMPKDFPPFPQKLKFREPQREERICLVTTNFQTKSMSSMVSDTSCTFPSGDGIFWKHWIQTKDGQCQSPLVSTRDGFIVGIHSASNFTNTNNYFTSVPKNFMELLTNQEAQQWVSGWRLNADSVLWGGHKVFMVKPEEPFQPVKEATQL [G153Q],,,,,,,0.0438,,,
MGESLFKGPRDYNPISSSICHLTNESDGHTTSLYGIGFGPFIITNKHLFRRNNGTLVVQSLHGVFKVKDTTTLQQHLVDGRDMIIIRMPKDFPPFPQKLKFREPQREERICLVTTNFQTKSMSSMVSDTSCTFPSGDGIFWKHWIQTKDGQCSSPLVSTRDGFIVGIHSASNFTNTNNYFTSVPKNFMELLTNQEAQQWVSGWRLNADSVLWGGHKVFMVKPEEPFQPVKEATQL [G153S],,0.0442,,,,,0.041,,,
MGESLFKGPRDYNPISSSICHLTNESDGHTTSLYGIGFGPFIITNKHLFRRNNGTLVVQSLHGVFKVKDTTTLQQHLVDGRDMIIIRMPKDFPPFPQKLKFREPQREERICLVTTNFQTKSMSSMVSDTSCTFPSGDGIFNKHWIQTKDGQCGSPLVSTRDGFIVGIHSASNFTNTNNYFTSVPKNFMELLTNQEAQQWVSGWRLNADSVLWGGHKVFMVKPEEPFQPVKEATQL [W141N],,0.0544,,,,0.0548,,0.0444,0.0414,
MGESLFKGPRDYNPISSSICHLTNESDGHTTSLYGIGFGPFIITNKHLFRRNNGTLVVQSLHGVFKVKDTTTLQQHLVDGRDMIIIRMPKDFPPFPQKLKFREPQREERICLVTTNFQTKSMSSMVSDTSCTFPSGDGIFWKHWIQTKDGQCGSPLVSKRDGFIVGIHSASNFTNTNNYFTSVPKNFMELLTNQEAQQWVSGWRLNADSVLWGGHKVFMVKPEEPFQPVKEATQL [T159K],,,0.0342,0.0572,0.065,,,,0.0644,
MGESLFKGPRDYNPISSSICHLTNESDGHTTSLYGIGFGPFIITNKHLFRRNNGTLVVQSLHGVFKVKDTTTLQQHLVDGRDMIIIRMPKDFPPFPQKLKFREPQREERICLVTTNFQTKSMSSMVSDTSCTFPSGDGIFWKHWIQTKDGQCGSPLVSTRDGFIVGIHSASNFTNTNNYFTSVPKNFMELLTNQEAQQWVSGWRLNADSVLWGGHKEFMVKPEEPFQPVKEATQL [V217E],0.0577,0.0496,,,0.0538,0.0643,0.0586,,,
MGESLFKGPRDYNPISSSICHLTNESDGHTTSLYGIGFGPFIITNKHLFRRNNGTLVVQSLHGVFKVKDTTTLQQHLVDGRDMIIIRMPKDFPPFPQKLKFREPQREERICLVTTNFQTKSMSSMVSDTSCTFPSGDGIFWKHWIQTKDGQCGSPLVSTRDGFIVGIHSASNFTNTNNYFTSVPKNFMELLTNQEAQQWVSGWRLNADSVLWGGHKLFMVKPEEPFQPVKEATQL [V217L],0.0654,0.0511,0.0631,0.0574,0.0705,,,,0.0581,
MGESLFKGPRDYNPISSSICHLTNESDGHTTSLYGIGFGPFIITNKHLFRRNNGTLVVQSLHGVFKVKDTTTLQQHLVDGRDMIIIRMPKDFPPFPQKLKFREPQREERICLVTTNFQTKSMSSWVSDTSCTFPSGDGIFWKHWIQTKDGQCGSPLVSTRDGFIVGIHSASNFTNTNNYFTSVPKNFMELLTNQEAQQWVSGWRLNADSVLWGGHKVFMVKPEEPFQPVKEATQL [M125W],,0.0545,,,,,,,,
MGESLFKGPRDYNPISSSICHLTNESDGHTTSLYGIGFGPFIITNKHLFRRNNGTLVVQSLHGVFKVKDTTTLQQGLVDGRDMIIIRMPKDFPPFPQKLKFREPQREERICLVTTNFQTKSMSSMVSDTSCTFPSGDGIFWKHWIQTKDGQCGSPLVSTRDGFIVGIHSASNFTNTNNYFTSVPKNFMELLTNQEAQQWVSGWRLNADSVLWGGHKVFMVKPEEPFQPVKEATQL [H76G],,0.0576,0.077,,0.0669,,0.0595,,,

# Same assay, conditions: temperature: 34 °C; time window: 0-4 h after rhamnose induction
Variant,area with substrate ENLYFWS,area with substrate ENLYFFS,area with substrate ENLYFYS,area with substrate ENLYFPS,area with substrate ENLYFHS,area with substrate ENLYFGS
MGESLFKGPRDYNPISSSICHLTNESDGHTTSLYGIGFGPFIITNKHLFRRNNGTLVVQSLHGVFKVKDTTTLQQHLVDGRDMIIIRMPKDFPPFPQKLKFREPQREERICLVTTNFQTKSMSSMVSDTSCTFPSGDGIFWKHWIQTKDGQCGSPLVSTRDGFIVGIHSASNFTNTNNYFTSVPKNFMELLTNQEAQQWVSGWRLNADSVLWGGHKVFMVKPEEPFQPDKEATQL [V229D],0.0578,,,,,
MGESLFKGPRDYNPISSSICHLTNESDGHTTSLYGIGFGPFIITNKHLFRRNNGTLVVQSLHGVFKVKDTTTLQQHLVDGRDMIIIRMPKDFPPFPQKLKFREPQREERICLVTTNFQTKSMSSMVSDTSCTFPSGDGIFWKHWIQSKDGQCGSPLVSTRDGFIVGIHSASNFTNTNNYFTSVPKNFMELLTNQEAQQWVSGWRLNADSVLWGGHKVFMVKPEEPFQPVKEATQL [T147S],0.0571,0.0787,0.0586,,,
MGESLFKGPRDYNPISSSICHLTNESDGHTTSLYGIGFGPFIITNKHLFRRNNGTLVVQSLHGVFKVKDTTTLQQHLVDGRDMIIIRMPKDFPPFPQKLKFREPQREERICLVTTNFQTKSMSSMVSDTSCTFPSGDGIFWKHWIQTKDGQCGSPLVSTRDGFIVGIHSASNFTNTNNYFTSVPKNFMELLTNQEAQQWVSGWRLNADSVLWGGHKVFMVKPEEPFQPVAEATQL [K230A],,0.0769,,0.0597,,
MGESLFKGPRDYNPISSSICHLTNESDGHTTSLYGIGFGPFIITNKHLFRRNNGTLVVQSLHGVFKVKDTTTLQQHLVDGRDMIIIRMPKDFPPFPQKLKFREPQREERICLVTTNFQTKSMSSMVSDTSCTFPSGDGIFWKHWIQTKDGQCQSPLVSTRDGFIVGIHSASNFTNTNNYFTSVPKNFMELLTNQEAQQWVSGWRLNADSVLWGGHKVFMVKPEEPFQPVKEATQL [G153Q],,0.082,,,,
MGESLFKGPRDYNPISSSICHLTNESDGHTTSLYGIGFGPFIITNKHLFRRNNGTLVVQSLHGVFKVKDTTTLQQHLVDGRDMIIIRMPKDFPPFPQKLKFREPQREERICLVTTNFQTKSMSSMVSDTSCTFPSGDGIFWKHWIQTKDGQCSSPLVSTRDGFIVGIHSASNFTNTNNYFTSVPKNFMELLTNQEAQQWVSGWRLNADSVLWGGHKVFMVKPEEPFQPVKEATQL [G153S],,0.0515,,,,
MGESLFKGPRDYNPISSSICHLTNESDGHTTSLYGIGFGPFIITNKHLFRRNNGTLVVQSLHGVFKVKDTTTLQQHLVDGRDMIIIRMPKDFPPFPQKLKFREPQREERICLVTTNFQTKSMSSMVSDTSCTFPSGDGIFNKHWIQTKDGQCGSPLVSTRDGFIVGIHSASNFTNTNNYFTSVPKNFMELLTNQEAQQWVSGWRLNADSVLWGGHKVFMVKPEEPFQPVKEATQL [W141N],,0.0427,,,0.066,
MGESLFKGPRDYNPISSSICHLTNESDGHTTSLYGIGFGPFIITNKHLFRRNNGTLVVQSLHGVFKVKDTTTLQQHLVDGRDMIIIRMPKDFPPFPQKLKFREPQREERICLVTTNFQTKSMSSMVSDTSCTFPSGDGIFWKHWIQTKDGQCGSPLVSKRDGFIVGIHSASNFTNTNNYFTSVPKNFMELLTNQEAQQWVSGWRLNADSVLWGGHKVFMVKPEEPFQPVKEATQL [T159K],0.0431,0.0659,0.0471,0.0572,0.0601,0.0635
MGESLFKGPRDYNPISSSICHLTNESDGHTTSLYGIGFGPFIITNKHLFRRNNGTLVVQSLHGVFKVKDTTTLQQHLVDGRDMIIIRMPKDFPPFPQKLKFREPQREERICLVTTNFQTKSMSSMVSDTSCTFPSGDGIFWKHWIQTKDGQCGSPLVSTRDGFIVGIHSASNFTNTNNYFTSVPKNFMELLTNQEAQQWVSGWRLNADSVLWGGHKEFMVKPEEPFQPVKEATQL [V217E],,,,0.0736,,
MGESLFKGPRDYNPISSSICHLTNESDGHTTSLYGIGFGPFIITNKHLFRRNNGTLVVQSLHGVFKVKDTTTLQQHLVDGRDMIIIRMPKDFPPFPQKLKFREPQREERICLVTTNFQTKSMSSMVSDTSCTFPSGDGIFWKHWIQTKDGQCGSPLVSTRDGFIVGIHSASNFTNTNNYFTSVPKNFMELLTNQEAQQWVSGWRLNADSVLWGGHKLFMVKPEEPFQPVKEATQL [V217L],0.0624,,,,,
MGESLFKGPRDYNPISSSICHLTNESDGHTTSLYGIGFGPFIITNKHLFRRNNGTLVVQSLHGVFKVKDTTTLQQHLVDGRDMIIIRMPKDFPPFPQKLKFREPQREERICLVTTNFQTKSMSSWVSDTSCTFPSGDGIFWKHWIQTKDGQCGSPLVSTRDGFIVGIHSASNFTNTNNYFTSVPKNFMELLTNQEAQQWVSGWRLNADSVLWGGHKVFMVKPEEPFQPVKEATQL [M125W],0.0602,0.0503,0.049,,,
MGESLFKGPRDYNPISSSICHLTNESDGHTTSLYGIGFGPFIITNKHLFRRNNGTLVVQSLHGVFKVKDTTTLQQGLVDGRDMIIIRMPKDFPPFPQKLKFREPQREERICLVTTNFQTKSMSSMVSDTSCTFPSGDGIFWKHWIQTKDGQCGSPLVSTRDGFIVGIHSASNFTNTNNYFTSVPKNFMELLTNQEAQQWVSGWRLNADSVLWGGHKVFMVKPEEPFQPVKEATQL [H76G],,0.0747,,,,
